Reference: ChEMBL document CHEMBL4888484, “Replenishing the malaria drug discovery pipeline: Screening and hit evaluation of the MMV Hit Generation Library 1 (HGL1) against asexual blood stage Plasmodium falciparum ,using a nano luciferase reporter read-out” (2022)
The whole screen tested about 150,000 compounds, of which about 540 (0.36%) showed an effect of 50% or more. The list shows a part of the results.

These molecules were tested on Plasmodium falciparum (assay: Primary screen in NF54 nanoGlo assay, in single point, at 2uM, 72h; a lower Z score goes with more inhibition). Conditions: timepoint 72 hour.
Type: functional, Erythrocyte
In the case of `O=c1c2ccccc2ncn1C[C@H](O)COc1ccc2ccccc2c1`, the “% Inhibition” value is reported as -2% and the Z score is reported as 0.4. `COC(=O)c1[nH]c(C)c(C(=O)N2CCN(c3cccc(C)c3)CC2)c1C` was tested, and the “% Inhibition” value was -1% and the Z score was 0.12. In the case of `O=C(c1cnn2c1OCCC2)N1Cc2ncccc2N2CCC[C@H]2C1`, the “% Inhibition” value is reported as -10% and the Z score is reported as 1.75. For `Cc1ccccc1Nc1nc(N)nc(CN(C)CC(=O)Nc2cccc(F)c2)n1`, the “% Inhibition” value was -14% and the Z score was 1.85. For `COc1cccc(C(=O)N2CCc3nc(N(C)Cc4ccccc4)nc(Oc4cccc(F)c4)c3C2)c1`, the “% Inhibition” value was -14% and the Z score was 1.87. In the case of `CC(C)c1nn(C)cc1CN(C)[C@@H](C)C#N`, the “% Inhibition” value is reported as -8% and the Z score is reported as 1.11. For `Cc1ccc(CS(=O)(=O)[C@@H](C)c2nnnn2C)cc1C`, the “% Inhibition” value was 6% and the Z score was -0.98. `COC(=O)N1C[C@@H]2[C@@H](CN(C)Cc3nc(C(C)C)no3)[C@@H]2C1` was tested, and the “% Inhibition” value was -9% and the Z score was 1.72. In the case of `CCCN(CC(=O)N1CCc2sccc2[C@@H]1COc1ccc(C(C)C)cc1)C(=O)Nc1ccc(C)cc1`, the “% Inhibition” value is reported as -3% and the Z score is reported as 0.41. For `Cc1ccccc1OC1(C(=O)O)CCN(C(=O)[C@@H]2CC=CCC2)CC1`, the “% Inhibition” value was -10% and the Z score was 1.04. `CC(=O)N[C@H]1CCN(C(=O)c2ccc(-c3ccc(C)nc3C)cc2)C1` was tested, and the “% Inhibition” value was 4% and the Z score was -0.68. `O=C(N[C@H]1C[C@H](c2cc(=O)[nH]cn2)C1)c1nccnc1C(=O)N1CCCCC1` was tested, and the “% Inhibition” value was -1% and the Z score was 0.15. In the case of `Cc1ccccc1N1C(=O)C2ON(c3ccccc3)C(c3ccncc3)C2C1=O` (centres undefined), the “% Inhibition” value is reported as -5% and the Z score is reported as 0.48. For `C[C@@]12CN(C(=O)CN3CCCS3(=O)=O)CC1[C@H]1CC[C@@H]2C1` (some centres undefined), the “% Inhibition” value was -10% and the Z score was 1.02. `COc1ccc(-c2noc([C@H](C)NC(=O)c3cccnc3)n2)cc1OC` was tested, and the “% Inhibition” value was 1% and the Z score was -0.2. In the case of `Cc1cccc(C(=O)Nc2c(C#N)c(-c3ccccc3)c(-c3ccccc3)n2Cc2ccccc2)c1`, the “% Inhibition” value is reported as 33% and the Z score is reported as -0.45. `COc1cccc(-c2cn[nH]c2C2CCN(Cc3cccs3)CC2)c1` was tested, and the “% Inhibition” value was -4% and the Z score was 0.4. For `Oc1nnc(COc2ccc(Br)cc2)o1`, the “% Inhibition” value was 12% and the Z score was -1.73. `Cc1ccc(S(=O)(=O)N2C(=O)CC[C@H]2C(=O)N(C)C2CCCCC2)cc1C` was tested, and the “% Inhibition” value was -15% and the Z score was 2.04. For `C#CCNC(=O)c1cc(Br)cnc1N(C)C`, the “% Inhibition” value was -3% and the Z score was 0.36. For `Cc1cc(C)n(S(=O)(=O)c2cccc3nonc23)n1`, the “% Inhibition” value was -2% and the Z score was 0.33. With `CCc1ccc([C@H](C)NCC(C)(C)C(N)=O)s1` the “% Inhibition” value was 9% and the Z score was -1.35. With `CC(C)c1ccc([C@H](C)NCC2(O)CCC(C(=O)O)CC2)cc1` (some centres undefined) the “% Inhibition” value was -1% and the Z score was 0.16. For `Cc1nn(C)c(C)c1S(=O)(=O)N1CCC[C@H](Cc2nc(-c3ccccc3F)no2)C1`, the “% Inhibition” value was 12% and the Z score was -1.56. In the case of `NC1(Cc2cc(-c3ccccc3)on2)COC1`, the “% Inhibition” value is reported as -5% and the Z score is reported as 0.7. With `Cn1nccc1-c1nc(CCc2ccccc2)no1` the “% Inhibition” value was 4% and the Z score was -0.38. With `COc1cccc(-c2cc3nc(C(=O)O)cc(C4CC4)n3n2)c1` the “% Inhibition” value was -4% and the Z score was 0.58. In the case of `Cc1nc(C)n(CCCNC(=O)N2CCC[C@H](c3nc4c(C)cccc4[nH]3)C2)n1`, the “% Inhibition” value is reported as 18% and the Z score is reported as -2.29. With `COc1ccc(-n2ncnc2[C@H](C)N2CCCCC2)cc1` the “% Inhibition” value was -16% and the Z score was 1.72. For `CC(NC(=O)C(C)n1ccnc1)c1cnn(C)c1` (centres undefined), the “% Inhibition” value was 19% and the Z score was -2.38. `Cc1cc(C(=O)Nc2nc3c(s2)CN(C(=O)c2cc(C)oc2C)CC3)no1` was tested, and the “% Inhibition” value was -16% and the Z score was 2.3. For `OCCN1CCC[C@H](Nc2ncnc3c(F)cccc23)C1`, the “% Inhibition” value was -7% and the Z score was 0.98. With `CCOc1ccc(CC(=O)N2C3C=CCC2CC3)cc1` (centres undefined) the “% Inhibition” value was -2% and the Z score was 0.41. With `C[C@@H](C(=O)OCc1cc2c(Cl)cccc2[nH]1)N(C)CC(F)(F)F` the “% Inhibition” value was -13% and the Z score was 1.57. `c1nc2c(c(N3CCOC4(CCCC4)C3)n1)CCNCC2` was tested, and the “% Inhibition” value was 3% and the Z score was -0.59. In the case of `COC(=O)c1ccc2nn(C(C)=O)cc2c1`, the “% Inhibition” value is reported as -3% and the Z score is reported as 0.38. In the case of `C=CCOc1nc2ccc(C)cc2cc1CNCCO`, the “% Inhibition” value is reported as 3% and the Z score is reported as -0.39. In the case of `CCc1nnc(C)cc1C(=O)N1CCc2[nH]c3ccc(F)cc3c2C1`, the “% Inhibition” value is reported as 17% and the Z score is reported as -2.13. In the case of `O=C(c1ncccn1)N1CC[C@H](Oc2ccncc2Cl)C1`, the “% Inhibition” value is reported as -4% and the Z score is reported as 0.7. `CO[C@H]1CN(C)C[C@@H]1Nc1ccc2ccccc2n1` was tested, and the “% Inhibition” value was -5% and the Z score was 1.08. With `CCc1ccccc1NC(=O)CN1CCN(C(=O)c2cc(C)sc2C)CC1` the “% Inhibition” value was 3% and the Z score was -0.38. For `C[C@@H](CN)N(C)c1ccnc2cc(Br)cnc12`, the “% Inhibition” value was 99% and the Z score was -17.88.
